Data as given in the supplement of paper PMC7125110.
± gives the standard error. This sample is rich in variants without activity.

B1: glmS ribozyme (parent)
chain: AUAAAAGCGCCAGAACUACAGAAAUGUAGUUGACGAGGAGGAGGUUUAUCGAAUUUUCGGCGGAUGCCUCCAAA

Experiments:
Settings in all cases: with glucosamine-6-phosphate
glucosamine-6-phosphate [1] = variants of: B1; test: self-cleavage kobs at 40 uM GlcN6P; higher = faster cleavage; RNA array
Summary of the method: (§1)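 Barcoded ribozyme variants on sequenced MiSeq chips were transcribed in situ by E. coli RNA polymerase and followed at 37 °C through a hybridised Cy3 probe. Glucosamine-6-phosphate at 40 μM to 10 mM in HEPES/KCl/Mg(OAc)2 buffer was flowed in, and tiles were imaged over ~14 h. Signals were normalised to baseline and to non-cleaving reference variants, and per-tile medians were fit to one- or two-exponential decays to give kobs. Weighted Michaelis–Menten fits across concentrations gave kcat and KM.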

glucosamine-6-phosphate [2] = variants of: B1; test: self-cleavage kobs at 640 uM GlcN6P; higher = faster cleavage; RNA array
Summary of the method: as §1

glucosamine-6-phosphate [3] = variants of: B1; test: self-cleavage kobs at 160 uM GlcN6P; higher = faster cleavage; RNA array
Summary of the method: as §1

glucosamine-6-phosphate [4] = variants of: B1; test: self-cleavage kobs at 2500 uM GlcN6P; higher = faster cleavage; RNA array
Summary of the method: as §1

glucosamine-6-phosphate [5] = variants of: B1; test: self-cleavage kobs at 10000 uM GlcN6P; higher = faster cleavage; RNA array
Summary of the method: as §1

Row | Variant | self-cleavage kobs at 40 uM GlcN6P (glucosamine-6-phosphate [1]) | self-cleavage kobs at 640 uM GlcN6P (glucosamine-6-phosphate [2]) | self-cleavage kobs at 160 uM GlcN6P (glucosamine-6-phosphate [3]) | self-cleavage kobs at 2500 uM GlcN6P (glucosamine-6-phosphate [4]) | self-cleavage kobs at 10000 uM GlcN6P (glucosamine-6-phosphate [5])
1 | A14U U55G | 0.000209 ± 3.1e-05 s⁻¹ | 0.00176 ± 0.00023 s⁻¹ | 0.000508 ± 8e-05 s⁻¹ | 0.0041 ± 0.00047 s⁻¹ | 0.0105 ± 0.0021 s⁻¹
2 | A15U C34A A52U | < 1e-05 s⁻¹ |  |  |  | 
3 | G13U G35U | < 1e-05 s⁻¹ | < 1e-05 s⁻¹ | < 1e-05 s⁻¹ | < 1e-05 s⁻¹ | < 1e-05 s⁻¹
4 | A15U C70U C71U | < 1e-05 s⁻¹ |  |  |  | 
5 | G13U U54C G59U | < 1e-05 s⁻¹ | < 1e-05 s⁻¹ |  | < 1e-05 s⁻¹ | 
6 | G13U C34A | < 1e-05 s⁻¹ | < 1e-05 s⁻¹ | < 1e-05 s⁻¹ | < 1e-05 s⁻¹ | < 1e-05 s⁻¹
7 | G13U G35U G63C A64U | < 1e-05 s⁻¹ |  |  |  | 
8 | A14G A33U G43A | < 1e-05 s⁻¹ |  |  |  | 
9 | A15G G43C A52U | < 1e-05 s⁻¹ |  |  |  | 
10 | A15G G59A C61U | < 1e-05 s⁻¹ | < 1e-05 s⁻¹ | < 1e-05 s⁻¹ | < 1e-05 s⁻¹ | < 1e-05 s⁻¹
11 | A14U A53U C71U | 9.83e-05 ± 2.7e-05 s⁻¹ | 0.000509 ± 8.6e-05 s⁻¹ | 0.00021 ± 4.5e-05 s⁻¹ | 0.00145 ± 0.00032 s⁻¹ | 0.00546 ± 0.0013 s⁻¹
12 | A14C G62C | < 1e-05 s⁻¹ | < 1e-05 s⁻¹ | < 1e-05 s⁻¹ | < 1e-05 s⁻¹ | < 1e-05 s⁻¹
13 | A14U U69C | 0.000126 ± 2.3e-05 s⁻¹ | 0.000362 ± 4.8e-05 s⁻¹ | 0.000147 ± 2.2e-05 s⁻¹ | 0.000501 ± 0.00015 s⁻¹ | 0.00132 ± 0.00026 s⁻¹
14 | A15G A42G G66C | < 1e-05 s⁻¹ |  |  |  | 
15 | G13U A42C C50A C61G U69A C71G | < 1e-05 s⁻¹ |  |  |  | < 1e-05 s⁻¹
16 | A14G U55G | 0.00161 ± 0.00014 s⁻¹ | 0.00984 ± 0.0012 s⁻¹ | 0.00404 ± 0.00073 s⁻¹ | 0.00953 ± 0.0023 s⁻¹ | 0.0589 ± 0.011 s⁻¹
17 | A14G U55C | 0.00179 ± 0.00021 s⁻¹ | 0.0382 ± 0.012 s⁻¹ | 0.00449 ± 0.00098 s⁻¹ |  | 0.0522 ± 0.015 s⁻¹
18 | G13C G41U | < 1e-05 s⁻¹ |  | < 1e-05 s⁻¹ |  | 
19 | A14G U56G | 0.00201 ± 0.00033 s⁻¹ | 0.0223 ± 0.0035 s⁻¹ | 0.0087 ± 0.0018 s⁻¹ | 0.0673 ± 0.027 s⁻¹ | 0.0704 ± 0.02 s⁻¹
20 | A14G G62C | < 1e-05 s⁻¹ | < 1e-05 s⁻¹ | < 1e-05 s⁻¹ | < 1e-05 s⁻¹ | 
21 | A14C G41A A42G A53G U65A C67A | < 1e-05 s⁻¹ |  |  |  | 
22 | A14G A52G C61U | < 1e-05 s⁻¹ |  |  |  | 
23 | G13C U30C G62A | < 1e-05 s⁻¹ | < 1e-05 s⁻¹ |  | < 1e-05 s⁻¹ | 
24 | C16A C61G | < 1e-05 s⁻¹ |  |  |  | < 1e-05 s⁻¹

Row | Variant | self-cleavage kobs at 40 uM GlcN6P (glucosamine-6-phosphate [1]) | self-cleavage kobs at 640 uM GlcN6P (glucosamine-6-phosphate [2]) | self-cleavage kobs at 160 uM GlcN6P (glucosamine-6-phosphate [3]) | self-cleavage kobs at 2500 uM GlcN6P (glucosamine-6-phosphate [4]) | self-cleavage kobs at 10000 uM GlcN6P (glucosamine-6-phosphate [5])
25 | A15U C68U | 1.92e-05 ± 9.6e-06 s⁻¹ | 0.000127 ± 9.9e-06 s⁻¹ | 4.94e-05 ± 7.4e-06 s⁻¹ | 0.000277 ± 2.2e-05 s⁻¹ | 0.000409 ± 2.7e-05 s⁻¹
26 | A15C A52C | < 1e-05 s⁻¹ | < 1e-05 s⁻¹ | < 1e-05 s⁻¹ | < 1e-05 s⁻¹ | < 1e-05 s⁻¹
27 | A15G C16G | 9.12e-05 ± 2.2e-05 s⁻¹ | 0.0011 ± 0.00023 s⁻¹ | 0.000213 ± 6.8e-05 s⁻¹ | 0.00326 ± 0.00063 s⁻¹ | 0.00391 ± 0.00059 s⁻¹
28 | G13U C16U C70U | 5.86e-05 ± 1.3e-05 s⁻¹ |  |  |  | 0.00165 ± 0.00029 s⁻¹
29 | A14U U49C G59C | < 1e-05 s⁻¹ |  |  |  | 
30 | A15G G38U U47A C68G | 9.09e-05 ± 3.3e-05 s⁻¹ |  |  |  | 
31 | A15G G37A U49A A52G G59A G62U | < 1e-05 s⁻¹ |  |  | < 1e-05 s⁻¹ | 
32 | A15U G59U | < 1e-05 s⁻¹ |  | < 1e-05 s⁻¹ |  | 
33 | A15G G38C | < 1e-05 s⁻¹ | < 1e-05 s⁻¹ | < 1e-05 s⁻¹ | < 1e-05 s⁻¹ | 
34 | A15C U54A | 0.000164 ± 2.4e-05 s⁻¹ | 0.0012 ± 0.00025 s⁻¹ | 0.000559 ± 0.00011 s⁻¹ |  | 
35 | C16A C34A G37U C50A C61A | 0.000276 ± 6.5e-05 s⁻¹ |  |  |  | 0.000316 ± 6.4e-05 s⁻¹
36 | G13U G63A C67A | < 1e-05 s⁻¹ |  |  |  | 
37 | G13U G40A G60U C61G G66C | < 1e-05 s⁻¹ |  |  |  | < 1e-05 s⁻¹
38 | G13C G63A | < 1e-05 s⁻¹ | < 1e-05 s⁻¹ |  | < 1e-05 s⁻¹ | 
39 | A14G U57G | < 1e-05 s⁻¹ |  |  |  | 
40 | C16A C34A A36U G43U G51A A53C U56A G62A | < 1e-05 s⁻¹ |  |  |  | < 1e-05 s⁻¹
41 | A14C U57C U69C | < 1e-05 s⁻¹ |  |  |  | 
42 | A14G G35C A42G G43U U56C C61A | < 1e-05 s⁻¹ |  |  | < 1e-05 s⁻¹ | < 1e-05 s⁻¹
43 | A15C G37C G40A G43U | < 1e-05 s⁻¹ |  |  |  | 
44 | A15C U30A A42U G63U | < 1e-05 s⁻¹ |  |  |  | 
45 | A15G U47G G60A C61U C68A | 6.07e-05 ± 2.7e-05 s⁻¹ | 0.000299 ± 9.2e-05 s⁻¹ |  | 0.00013 ± 3.6e-05 s⁻¹ | 
46 | A15U G43A U57C | < 1e-05 s⁻¹ |  |  |  | 
47 | A14U U55G C61G | < 1e-05 s⁻¹ |  |  |  | 
48 | A15G G37U | < 1e-05 s⁻¹ |  |  |  | 
